PubChem BioAssay AID485281 (National Center for Advancing Translational Sciences (NCATS), 2010)
Out of some 350,000 compounds screened, about 260 (0.074%) were called active. The shares of active, inactive and inconclusive entries below differ from those in the screen. Calls follow the shape of the dose curve; as a rule, active = well fitted inhibition curve with a large enough effect; inconclusive = small, poorly fitted or top-dose-only effect; inactive = no such curve, though single readings can be large or run the other way. A potency beside an inconclusive call is a rough fit, not a confirmed value.

These compounds were tested against Ferritin light chain (Equus caballus) (UniProt P02791) (assay: qHTS Assay for Identification of Novel General Anesthetics). Settings: apoferritin/1-aminoanthracene competitive binding, fluorescence; series mostly up to 77.5 µM.
Sequence of UniProt P02791 (P02791 whole entry, looked up): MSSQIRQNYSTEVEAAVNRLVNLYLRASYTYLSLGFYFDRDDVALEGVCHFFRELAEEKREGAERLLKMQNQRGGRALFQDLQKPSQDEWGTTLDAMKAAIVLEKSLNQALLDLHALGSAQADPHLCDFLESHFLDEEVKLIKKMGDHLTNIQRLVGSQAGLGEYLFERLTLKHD
Procedure, shortened: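 In PBS, apoferritin at 10 uM is loaded with 1-AMA from a 50% saturated solution. After 10 min of compound exposure at ambient temperature, reduced 535 nm fluorescence indicates probe displacement.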
Also: nearly all actives have a fitted effect of over 20% in size.
Potency is read from the fitted curve at half-maximal effect; tags tell the direction and shape of the fitted curve.

| SMILES | Potency |
| --- | --- |
| O=C(c1ccco1)N1CCN(C(c2ccccc2)c2nnnn2Cc2cccs2)CC1 (stereo not given) | inconclusive: 5.01 µM [inhibitor, single point] |
| C/C(=N/NC(=O)CNC(=O)c1cccc(F)c1)c1ccc2c(c1)CCCC2 | inconclusive: 50.1 µM [inhibitor, single point] |
| CCc1ccc(/C=C/c2c[nH]c3ccccc23)[n+](CC)c1 | inactive |
| CN(c1ccccc1)S(=O)(=O)c1ccc(C(=O)NCc2cccs2)cc1 | inactive |
| Cc1ccc(-n2cc(CNCCc3cscn3)c(-c3ccc(F)cc3)n2)cc1 | inconclusive: 35.5 µM [inhibitor, partial curve] |
| Cc1cc(F)ccc1S(=O)(=O)Nc1ncnc2sc3c(c12)CCC3 | inactive |
| O=[N+]([O-])c1cc(Cl)cc(/C=N/NC(=S)Nc2ccc(S(=O)(=O)N3CCOCC3)cc2)c1O | inconclusive: 50.1 µM [inhibitor, single point] |
| Oc1ccc(/C(Cc2ccc3ccccc3n2)=N\Nc2ccccc2)c(O)c1 | inconclusive: 31.6 µM [inhibitor, partial curve] |
| Cc1ccc(C(=O)N/N=c2\oc3ccccc3cc2C(N)=O)cc1 | inactive |
| O=C(CSc1nncn2c1cc1occc12)Nc1ccc(F)c(Cl)c1 | inconclusive: 20 µM [inhibitor, partial curve] |
| Cc1cc(OC(=O)c2ccccc2Cl)ccc1N1C(=O)CCC1=O | inconclusive: 25.1 µM [inhibitor, partial curve] |
| CC(C)=C1C2CCC1C1C(=O)N(NC(=O)COc3ccc(C(C)(C)C)cc3)C(=O)C21 (stereo not given) | inconclusive: 12.6 µM [inhibitor, partial curve] |
| Cc1ccc(CN2CCN(CC(=O)N3CCc4ccccc4C3)C2=O)cc1 | inconclusive: 35.5 µM [inhibitor, partial curve] |
| NC(Cc1ccccc1)C(O)c1ccco1 (stereo not given) | inactive |
| c1ccc([C@H]2CC3C[C@@H](c4ccccc4)N2O3)cc1 | inconclusive: 17.8 µM [inhibitor, partial curve] |
| Cc1noc(/C=C/NCc2cccnc2)c1S(=O)(=O)N(C)CC(=O)N1CCc2ccccc21 | inactive |
| O=S(=O)(NCCc1ccncc1)c1cc(Br)ccc1F | inconclusive: 56.2 µM [inhibitor, single point] |
| CC1CCN(C(=O)CSc2nc(N)cc(N)n2)CC1 | inconclusive: 39.8 µM [inhibitor, single point] |
| COc1ccc(C(=O)O)c(OC)n1 | inactive |
| O=C(CN1CCN(c2ncc(C(F)(F)F)cc2Cl)CC1)NC(=O)NCc1ccccc1 | inconclusive: 28.2 µM [inhibitor, single point] |
| COc1cc2c(cc1NC(=O)CCCCCN1C(=O)CCC1=O)oc1ccccc12 | inconclusive: 39.8 µM [inhibitor, single point] |
| COc1cc(/C=C2\SC(=Nc3ccccc3)N(Cc3ccco3)C2=O)ccc1OC(C)C(=O)O (stereo not given) | inconclusive: 28.2 µM [inhibitor, partial curve] |
| Cc1ccccc1C1NC(=O)c2ccccc2O1 (stereo not given) | inconclusive: 15.8 µM [inhibitor, partial curve] |
| Nc1nnc(CSCc2ccc(Cl)cc2Cl)s1 | inconclusive: 15.8 µM [inhibitor, partial curve] |

| SMILES | Potency |
| --- | --- |
| CCN(CC)c1ccc(NC(=S)NC(=O)c2cccs2)cc1 | inconclusive: 28.2 µM [inhibitor, partial curve] |
| O=C(CCN1CCN(CCO)CC1)Nc1ccc(C2CCCC2)cc1 | inconclusive: 15.8 µM [inhibitor, partial curve] |
| COc1ccc(N(CC(C)C)S(=O)(=O)c2nnc(NC(=O)c3ccco3)s2)cc1 | inconclusive: 31.6 µM [inhibitor, single point] |
| CC(C)(C)c1ccc(OCC(=O)NCc2ccco2)cc1 | inconclusive: 50.1 µM [inhibitor, single point] |
| COc1ccccc1NS(=O)(=O)c1cc(NC(=O)c2ccncc2)ccc1N1CCCC1 | inconclusive: 17.8 µM [inhibitor, partial curve] |
| CCCCCCCCCCOC(=O)Cn1c(COc2ccccc2C)[n+](C)c2ccccc21 | inconclusive: 25.1 µM [inhibitor, partial curve] |
| COc1cccc(/C=N/NC(=O)c2cccc([N+](=O)[O-])c2)c1OS(=O)(=O)c1ccccc1 | inconclusive: 10 µM [inhibitor, partial curve] |
| COc1ccc(C2C=C(c3ccccc3)Nc3nnnn32)cc1 (stereo not given) | inactive |
| CC(SCc1ccccc1)C(=O)Nc1ccccc1F (stereo not given) | inconclusive: 22.4 µM [inhibitor, partial curve] |
| Cc1n[nH]c(C)c1S(=O)(=O)N1CCCC(C(=O)N2CCN(c3ccc(Cl)cc3)CC2)C1 (stereo not given) | inconclusive: 35.5 µM [inhibitor, partial curve] |
| CCc1ccc2oc(C(=O)Nc3cccnc3)c(C)c2c1 | inactive |
| NS(=O)(=O)c1ccc(CNC(=O)C23CC4CC(CC(C4)C2)C3)cc1 | inconclusive: 15.8 µM [inhibitor, partial curve] |
| COc1cc(OC)c2c(-c3ccccc3)cc(=O)oc2c1C(CCN1CCCC1)c1ccc2c(c1)OCO2 (stereo not given) | inconclusive: 39.8 µM [inhibitor, partial curve] |
| Nc1nc(SCc2ccccc2)ns1 | inconclusive: 50.1 µM [inhibitor, single point] |
| CN(C)C(CNC(=O)c1cccc(S(=O)(=O)N2CC3(C)CC2CC(C)(C)C3)c1)c1ccco1 (stereo not given) | inconclusive: 22.4 µM [inhibitor, partial curve] |
| CCSc1nnc(NC(=O)c2ccccc2)s1 | inactive |
| Cc1nc(SCc2ccccc2)nc2c1CCC2 | inconclusive: 28.2 µM [inhibitor, partial curve] |
| CCOc1cc(S(=O)(=O)NC2CCCC2)ccc1Cl | inactive |
| O=C(O)C1C2C=CC(C2)C1C(=O)Nc1ccc(Cl)c(Cl)c1 (stereo not given) | inconclusive: 28.2 µM [inhibitor, single point] |
| CC1CCc2c(sc3nnn(Cc4ccccc4Cl)c(=O)c23)C1 (stereo not given) | inconclusive: 25.1 µM [inhibitor, partial curve] |
| CCOc1ccc(S(=O)(=O)c2cc3cccc(OCC)c3oc2=O)cc1 | inactive |
| O=C1c2ccccc2CCC1CNCCc1ccc(O)cc1 (stereo not given) | inconclusive: 22.4 µM [inhibitor, single point] |
| O=C(OCc1nnc(-c2ccccc2)o1)c1ccco1 | inconclusive: 100 µM [inhibitor, partial curve] |
| CCOc1ccccc1Oc1ncnc2c1oc1ccccc12 | inactive |

| SMILES | Potency |
| --- | --- |
| COc1ccc(-n2c(SCc3ccc([N+](=O)[O-])cc3)nnc2-c2ccc(C)cc2)cc1 | inconclusive: 5.01 µM [inhibitor, full curve, poor fit] |
| Cc1ccccc1/C=C1\C(=O)Nc2ccc(F)cc21 | inconclusive: 50.1 µM [inhibitor, single point] |
| CC(C)c1ccc(Nc2nc(CC(=O)O)cs2)cc1 | inconclusive: 31.6 µM [inhibitor, partial curve] |
| Cc1cccc(NCc2ccccc2O)n1 | inconclusive: 25.1 µM [inhibitor, partial curve] |
| CCOC(=O)c1cnc2ccc(OCC)cc2c1N1CCN(c2ccccc2)CC1 | inconclusive: 12.6 µM [inhibitor, partial curve] |
| C=C1C(=O)OC2C1CC/C(C)=C/CCC1(C)OC21 (stereo not given) | inconclusive: 50.1 µM [inhibitor, single point] |
| Cc1ccnc(NC(=O)c2cc([N+](=O)[O-])cc([N+](=O)[O-])c2)c1 | inactive |
| COC(=O)c1cn(-c2ccc(Cl)cc2)c(=O)c2ccccc12 | inconclusive: 20 µM [inhibitor, partial curve] |
| CCC(C)c1ccc(NC(=S)NC2CCN(Cc3ccccc3)CC2)cc1 (stereo not given) | inconclusive: 50.1 µM [inhibitor, single point] |
| Cc1cc(C(=O)CSc2nnc(Nc3ccccc3)s2)c(C)n1CC1CCCO1 (stereo not given) | inconclusive: 31.6 µM [inhibitor, partial curve] |
| CCC1SC2=NC(C)=C(C(=O)OCCOC)C(c3ccc(C(=O)OC)cc3)N2C1=O (stereo not given) | inconclusive: 56.2 µM [inhibitor, single point] |
| O=C(c1cccc(Cl)c1)N1CCCC(c2ccc(Cl)cc2)=N1 | inconclusive: 8.91 µM [inhibitor, partial curve] |
| COC(=O)c1cc(-c2cccc(OC)c2)on1 | inconclusive: 15.8 µM [inhibitor, partial curve] |
| O=C1C2ON(c3ccccc3)C(c3ccccn3)C2C(=O)N1c1ccc(Br)cc1 (stereo not given) | inactive |
| Cc1cc(/C=N/n2cnnc2)c(C)n1-c1ccc(OCc2ccc(F)cc2)cc1 | inconclusive: 28.2 µM [inhibitor, partial curve] |
| CCOC(=O)NC1(C(F)(F)F)NC(=O)N(c2ccc(F)cc2)C1=O (stereo not given) | inactive |
| COc1ccc(N2CCN(CC(=O)Nc3nc4c(s3)CC(C)CC4)CC2)cc1 (stereo not given) | inactive |
| Cc1nc2ccccc2n1CC(O)COCC1CC=CCC1 (stereo not given) | inactive |
| Cc1cccc(OCCn2nc(C(=O)O)c3ccccc3c2=O)c1 | inconclusive: 39.8 µM [inhibitor, partial curve] |
| Cc1ccc(Oc2ccc(N)cc2)cc1 | inconclusive: 17.8 µM [inhibitor, partial curve] |
| C1CCN(c2nc3nonc3nc2N2CCCCC2)CC1 | inconclusive: 56.2 µM [inhibitor, single point] |
| CCOC(=O)COc1ccc(S(=O)(=O)Nc2cccc(SC)c2)cc1 | inconclusive: 20 µM [inhibitor, partial curve] |
